{
  "source": "PubChem BioAssay AID686971",
  "about": "(National Center for Advancing Translational Sciences (NCATS), 2013)",
  "note": "Among all 360,000 compounds or so, about 7,500 (2.1%) were called active. This list was built around the results that the source calls inconclusive (neither active nor inactive); the mix of calls is not that of the screen. The call rests on the fitted dose curve; in most records, active means well fitted cell-killing curve with a large enough effect; inconclusive means small, poorly fitted or top-dose-only effect, or effect the other way, or another doubt; inactive means no such curve, though single readings can be large or run the other way. Potencies of inconclusive entries are left out as doubtful fits. Potency means the concentration at half of the fitted maximal effect; tags describe the fitted curve by direction and shape.",
  "data": [
    {"assay": "qHTS for induction of synthetic lethality in tumor cells producing 2HG: qHTS for the HT-1080-IDH1KD cell line;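 on activity, negative = toxicity: 0% = DMSO wells and -100% = cell-free medium wells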", "conditions": "HT-1080 IDH1 knockdown viability, ATP luminescence, 48 h; activity, negative = toxicity: at 46.1 µM (top of the series) unless noted", "summary_of_the_method": "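HT-1080-IDH1KD cells (IDH1 knocked down), 750/well in RPMI with 5% FBS, treated with compound 48 h at 37 degrees C. Viability by CellTiter-Glo luminescence, normalised to DMSO and no-cell wells; concentration-response curves classed.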", "values": [
      {"molecule": "Cc1cccc(NCCC(=O)c2ccc(Br)cc2)c1", "Potency": "inconclusive [cytotoxic, single point]"},
      {"molecule": "O=C(NCCCCCCCN1CCCCCCC1)C(C1CCCCC1)C1CCCCC1", "Potency": "inconclusive [cytotoxic, partial curve]"},
      {"molecule": "CCOc1ccc(-c2cc(C(=O)O)c3ccccc3n2)c(OCC)c1", "Potency": "active: 7.08 µM"},
      {"molecule": "Cc1ccccc1NC(=O)C(=Cc1ccc(C(=O)O)cc1)C(=O)Nc1ccccc1C", "Potency": "active: 4.61 µM"},
      {"molecule": "Cc1nnc(NC(=O)CSc2nc(C3CCCCC3)nc3ccccc23)s1", "Potency": "inconclusive [rising, single point]"},
      {"molecule": "Oc1ccc2ccccc2c1/C=C/c1ccc2c(Br)cc(Br)c(O)c2n1", "Potency": "active: 29.1 µM"},
      {"molecule": "CCOC(=O)N1CN(C(=O)OCC)CN(C(=O)OCC)C1", "Potency": "inactive"},
      {"molecule": "CCOc1ccc(NC(=O)Cn2nnc(C(=O)NCc3ccc4c(c3)OCO4)c2N)cc1", "Potency": "inconclusive [cytotoxic, single point]"},
      {"molecule": "O=C(COc1ccc(Cl)cc1Cl)Nc1ccccn1", "Potency": "active: 10 µM"},
      {"molecule": "COc1cc(-c2c(C#N)c(N)nc(SCc3ccncc3)c2C#N)cc(OC)c1OC", "Potency": "inconclusive [cytotoxic, single point]"},
      {"molecule": "CN(C(=O)c1cncc(Br)c1)C1C2CC3CC(C2)CC1C3", "note": "(stereo not drawn)", "Potency": "inactive"},
      {"molecule": "O=C(Nc1ccc(OCCO)cc1)c1csc([C@@H]2C[C@H](O)[C@@H](CO)O2)n1", "Potency": "inconclusive [rising, single point]"},
      {"molecule": "CCN(CC)C1Oc2cc3c(cc2C(c2cccc(OC)c2O)C1C)OCO3", "note": "(stereo not drawn)", "Potency": "inconclusive [cytotoxic, partial curve]"},
      {"molecule": "CC(=O)Nc1cc(-c2ccc(CO)cc2)cn2c(-c3ccc(F)c(Cl)c3)cnc12", "Potency": "inconclusive [cytotoxic, single point]"},
      {"molecule": "O=C(Nc1ccc2c(c1)CCC2)c1c(F)cccc1Cl", "Potency": "inactive"},
      {"molecule": "Cc1ccc2nc3c(c(Nc4cccc(O)c4)c2c1)CCC3", "Potency": "inconclusive [cytotoxic, single point]"},
      {"molecule": "COc1ccc(N2CC(C(=O)Nc3cccnc3)CC2=O)cc1", "note": "(stereo not drawn)", "Potency": "inactive"},
      {"molecule": "COc1ccccc1NS(=O)(=O)c1cc(NC(=O)c2[nH]c(C)c(C(C)=O)c2C)ccc1N1CCOCC1", "Potency": "inactive"},
      {"molecule": "COc1ccc(S(=O)(=O)n2cnc(C)c2)cc1", "Potency": "inactive"},
      {"molecule": "CC(=O)c1cccc(OCc2cc(C(=O)N(C)CCc3ccccn3)no2)c1", "Potency": "inactive"},
      {"molecule": "O=C(NCCC1=CCCCC1)c1ccc(=O)oc1", "Potency": "inconclusive [rising, single point]"},
      {"molecule": "CC(C)COCc1ccc(O)c2ncccc12", "Potency": "active: 10.3 µM"},
      {"molecule": "CCOC(=O)CC(NC(=O)c1ccc(C)cc1)c1ccc(OC)cc1", "note": "(stereo not drawn)", "Potency": "inactive"},
      {"molecule": "COc1ccc(NC(=O)c2cccc3c(-c4ccc(OC)cc4C)coc23)cc1", "Potency": "inconclusive [cytotoxic, single point]"},
      {"molecule": "CN(Cc1ccccc1)C(=O)c1ccc(NC(=O)Cc2ccc(NC(=O)C3CCN(C(=O)CCc4ccccc4)CC3)cc2)cc1", "Potency": "inconclusive [cytotoxic, single point]"},
      {"molecule": "COc1ccc(S(=O)(=O)N[C@@H](C)C(=O)OCC(=O)Nc2cc3oc4ccccc4c3cc2OC)cc1", "Potency": "inactive"},
      {"molecule": "Cc1cccc(C(=O)OCC(=O)c2c(N)n(CC(C)C)c(=O)n(C)c2=O)c1O", "Potency": "inactive"},
      {"molecule": "Cc1ccc(C(C)C)c(OCC(=O)NNC(=O)Cn2[nH]c(=O)c3ccccc3c2=O)c1", "Potency": "inactive"},
      {"molecule": "COC(=O)c1ccc2nc(-c3ccco3)c(Cc3ccc(OC)cc3C)n2c1", "Potency": "active: 16.4 µM"},
      {"molecule": "Cc1ccc(Cc2c(-c3cccc(Cl)c3)nc3ccc(C)cn23)cc1", "Potency": "inconclusive [cytotoxic, single point]"},
      {"molecule": "Cc1ccc(NS(=O)(=O)c2cccc(C(=O)NCC(c3ccc(F)cc3)N3CCOCC3)c2)cc1", "note": "(stereo not drawn)", "Potency": "inactive"},
      {"molecule": "CSc1ccc(/C=C/C(=O)c2ccc(NC(=O)C(C)C)cc2)cc1", "Potency": "inconclusive [cytotoxic, single point]"},
      {"molecule": "Cn1c(=O)c2cc(NC(=O)CCc3ccccc3)ccc2n1-c1ccccc1F", "Potency": "active: 7.31 µM"},
      {"molecule": "CC1=CC(C)(C)N2C(=O)C3(C(C#N)=C(N)OC4=C3C(=O)CC(C)(C)C4)c3c(C)c(C)cc1c32", "note": "(stereo not drawn)", "Potency": "inconclusive [cytotoxic, single point]"},
      {"molecule": "CC(=C/C(=O)O)/C=C/c1ccco1", "Potency": "inconclusive [cytotoxic, single point]"},
      {"molecule": "Cc1ccc(SCc2[nH]nc3c2C2(C(=O)Nc4ccc(F)cc42)C(C#N)=C(N)O3)cc1", "note": "(stereo not drawn)", "Potency": "inconclusive [cytotoxic, single point]"},
      {"molecule": "CC(=O)c1sc(NC(=O)C2CC(=O)N(Cc3ccccc3)C2)nc1-c1ccccc1", "note": "(stereo not drawn)", "Potency": "inactive"},
      {"molecule": "COc1cc(/C=C/C(=O)OCC(=O)Nc2oc(C)c3c(C)n[nH]c(=O)c23)ccc1OC(F)F", "Potency": "inactive"},
      {"molecule": "COc1ccc(NC(=O)C(C2CC2)n2c(=O)c(-c3cc4ccccc4[nH]3)nc3ccccc32)cc1", "note": "(stereo not drawn)", "Potency": "active: 14.6 µM"},
      {"molecule": "Cc1ccc(NC(=O)c2c(C(F)(F)F)nn(C)c2Cl)cc1C", "Potency": "inactive"},
      {"molecule": "Cc1cccc(CN2CCN(C(c3ccccc3)c3ccc(Cl)cc3)CC2)c1", "note": "(stereo not drawn)", "Potency": "inconclusive [cytotoxic, single point]"},
      {"molecule": "CCC(=O)Oc1ccc(C(=O)Nc2ccc3c(c2)C(=O)N(C2CCCCC2)C3=O)cc1", "Potency": "inconclusive [cytotoxic, single point]"},
      {"molecule": "CCN(c1ccc(OC)cc1)S(=O)(=O)c1ccc(-c2cc(C)no2)s1", "Potency": "inconclusive [cytotoxic, single point]"},
      {"molecule": "O=C(C(F)C(F)(F)F)N1CCN(c2ccccc2)CC1", "note": "(stereo not drawn)", "activity, negative = toxicity": "inconclusive: 42.5%"},
      {"molecule": "CCn1c(=O)c(C(=O)NCCN2CCCCC2)c(O)c2ccccc21", "Potency": "active: 18.4 µM"},
      {"molecule": "CCn1c(=O)c2cc(C(=O)N(C)c3ccccc3F)sc2c2ccccc21", "Potency": "inactive"},
      {"molecule": "CCCc1nnc(SCC(=O)Nc2ccc(OC)cc2)o1", "Potency": "inconclusive [cytotoxic, partial curve, poor fit]"},
      {"molecule": "Fc1ccc(CNc2ccn3nc(-c4ccccc4)cc3n2)cc1", "Potency": "inconclusive [cytotoxic, single point]"}
    ]}
  ]
}
